The list shows a part of the results. Each Rep nickase domain was tested in vitro on the same pool of single strands for 1 h at 37 °C with 3 µM enzyme; only the middle of the 90-letter strands is printed. Numbers give uncut DNA relative to the enzyme-free pool, as log2; more negative means more cut, near 0 not cut, and no call is made. Shares of all reads are compared, so uncut sequences can rise above 0 when many others are cut.

One test relates to T1, Rep nickase domain of porcine circovirus 2.
T1 sequence (Rep 2-116, printed without the tag): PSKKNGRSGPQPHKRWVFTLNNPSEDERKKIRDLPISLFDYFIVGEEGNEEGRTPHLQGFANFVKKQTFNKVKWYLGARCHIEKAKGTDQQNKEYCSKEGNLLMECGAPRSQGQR
The experiment in a line: uncleaved DNA left, log2 of reads against the no-enzyme library (log2 ratio); higher = less cleavage (more negative = more Rep cleavage of the k-mer); sequences stand for … in CTCGTCCG…ACCGGAGA
Here is the method:
(§1)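 A pool of 90-nt single-stranded DNAs with seven random bases just before the constant AC of the nick site (name = the seven bases) was cut by 3 µM recombinant His6-SUMO-tagged Rep nickase domain (300 nM DNA, 50 mM HEPES pH 8.0, 50 mM NaCl, 1 mM MnCl2, 1 h, 37 °C, three replicates). Uncut DNA was amplified and sequenced.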
For the sequence CCGCCTG, the “uncleaved DNA left (log2)” value was -0.00137.

Regarding ATGCTCA, the “uncleaved DNA left (log2)” value is 0.0229.

In the case of GTCCACA, the “uncleaved DNA left (log2)” value was 0.00367.

Turning to CTGTGCT, the “uncleaved DNA left (log2)” value was -2.84.

ATAAAGT: the “uncleaved DNA left (log2)” value is -0.0716.

As to GCGTATG, the “uncleaved DNA left (log2)” value worked out at 0.294.

For ATCCGAA, the “uncleaved DNA left (log2)” value is -0.00858.

Regarding TACAAGA, the “uncleaved DNA left (log2)” value stood at 0.00769.

Take CGCCAAC: the “uncleaved DNA left (log2)” value amounted to 0.0485.

As for CCGTTAT, the “uncleaved DNA left (log2)” value is -2.17.

Turning to TAGTAGC, the “uncleaved DNA left (log2)” value was -1.61.

On to GTCGGGC, for which the “uncleaved DNA left (log2)” value was found to be 0.082.

As for CCATGCT, the “uncleaved DNA left (log2)” value is -0.74.

For the sequence TGGCATC, the “uncleaved DNA left (log2)” value worked out at 0.156.

For the sequence CTTGTGT, the “uncleaved DNA left (log2)” value came to 0.175.

Take CACTCGT: the “uncleaved DNA left (log2)” value is -3.01.

With GTGTGAG, the “uncleaved DNA left (log2)” value came to 0.0139.

As for CTTCGGG, the “uncleaved DNA left (log2)” value was 0.105.

Regarding GGACTAT, the “uncleaved DNA left (log2)” value was 0.252.

ATAACGG: the “uncleaved DNA left (log2)” value amounted to 0.101.

As for TAGCGTT, the “uncleaved DNA left (log2)” value was -3.4.

In the case of GTTGTTG, the “uncleaved DNA left (log2)” value is -0.0692.

TTAACAG: the “uncleaved DNA left (log2)” value came to 0.115.

Consider AGTGGGC, for which the “uncleaved DNA left (log2)” value was found to be 0.267.

As for GCCAGAC, the “uncleaved DNA left (log2)” value came to 0.0478.

ACACGCG: the “uncleaved DNA left (log2)” value was found to be 0.127.

On to GTATGTT, for which the “uncleaved DNA left (log2)” value was -2.34.

For the sequence ACTCCCA, the “uncleaved DNA left (log2)” value was -0.555.

Regarding GACTCTC, the “uncleaved DNA left (log2)” value was -2.64.

Consider AAGAGGG, for which the “uncleaved DNA left (log2)” value is 0.257.

Take CCTAACC: the “uncleaved DNA left (log2)” value is -0.789.

For TATGTCA, the “uncleaved DNA left (log2)” value is -0.173.

Regarding AGGAAGG, the “uncleaved DNA left (log2)” value amounted to 0.0281.

Regarding TGTATGG, the “uncleaved DNA left (log2)” value stood at 0.185.

As for CGTTTTT, the “uncleaved DNA left (log2)” value was -2.79.

Take CCGCGGA: the “uncleaved DNA left (log2)” value is -0.0348.

TCTCAAA: the “uncleaved DNA left (log2)” value was -0.0816.

On to CCGGACT, for which the “uncleaved DNA left (log2)” value was -0.0265.

CCTTTAA: the “uncleaved DNA left (log2)” value was -0.0601.

As to GCTAGGA, the “uncleaved DNA left (log2)” value stood at 0.0773.

The next test deals with T2, Rep nickase domain of tomato golden mosaic virus.
T2 sequence (Rep 1-124, printed without the tag): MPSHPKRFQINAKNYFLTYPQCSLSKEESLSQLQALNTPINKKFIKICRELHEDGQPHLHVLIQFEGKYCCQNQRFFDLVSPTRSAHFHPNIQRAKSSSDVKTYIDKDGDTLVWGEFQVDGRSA
The test is described as above. How it is done: as §1
Take CCGCCTG: the “uncleaved DNA left (log2)” value is -0.0014.

On to ATGCTCA, for which the “uncleaved DNA left (log2)” value stood at 0.0723.

As for GTCCACA, the “uncleaved DNA left (log2)” value was 0.0494.

For the sequence CTGTGCT, the “uncleaved DNA left (log2)” value is -0.0226.

Take ATAAAGT: the “uncleaved DNA left (log2)” value amounted to 0.0156.

As to GCGTATG, the “uncleaved DNA left (log2)” value was found to be 0.205.

ATCCGAA: the “uncleaved DNA left (log2)” value is -0.0933.

With TACAAGA, the “uncleaved DNA left (log2)” value was -0.00963.

As to CGCCAAC, the “uncleaved DNA left (log2)” value was -0.0623.

Regarding CCGTTAT, the “uncleaved DNA left (log2)” value came out at 0.00215.

Regarding TAGTAGC, the “uncleaved DNA left (log2)” value is -0.0319.

Turning to GTCGGGC, the “uncleaved DNA left (log2)” value came to 0.0115.

With CCATGCT, the “uncleaved DNA left (log2)” value was -0.118.

As for TGGCATC, the “uncleaved DNA left (log2)” value is -0.0781.

As to CTTGTGT, the “uncleaved DNA left (log2)” value amounted to 0.00273.

Regarding CACTCGT, the “uncleaved DNA left (log2)” value is -0.164.

With GTGTGAG, the “uncleaved DNA left (log2)” value was -0.235.

Consider CTTCGGG, for which the “uncleaved DNA left (log2)” value was 0.0446.

Consider GGACTAT, for which the “uncleaved DNA left (log2)” value amounted to 0.115.

Take ATAACGG: the “uncleaved DNA left (log2)” value was 0.0385.

TAGCGTT: the “uncleaved DNA left (log2)” value was -0.124.

Take GTTGTTG: the “uncleaved DNA left (log2)” value is -0.0328.

TTAACAG: the “uncleaved DNA left (log2)” value was -0.0111.

As for AGTGGGC, the “uncleaved DNA left (log2)” value was determined as 0.0969.

Regarding GCCAGAC, the “uncleaved DNA left (log2)” value is -0.0734.

With ACACGCG, the “uncleaved DNA left (log2)” value was determined as 0.00044.

GTATGTT: the “uncleaved DNA left (log2)” value was -0.226.

Regarding ACTCCCA, the “uncleaved DNA left (log2)” value was -0.123.

Take GACTCTC: the “uncleaved DNA left (log2)” value is -0.074.

Consider AAGAGGG, for which the “uncleaved DNA left (log2)” value stood at 0.133.

Take CCTAACC: the “uncleaved DNA left (log2)” value was -0.0884.

Consider TATGTCA, for which the “uncleaved DNA left (log2)” value is -0.0253.

As to AGGAAGG, the “uncleaved DNA left (log2)” value is -0.0783.

In the case of TGTATGG, the “uncleaved DNA left (log2)” value came to 0.0868.

For the sequence CGTTTTT, the “uncleaved DNA left (log2)” value came out at 0.0575.

For CCGCGGA, the “uncleaved DNA left (log2)” value is -0.131.

Take TCTCAAA: the “uncleaved DNA left (log2)” value was -0.0244.

Turning to CCGGACT, the “uncleaved DNA left (log2)” value was -0.0868.

Regarding CCTTTAA, the “uncleaved DNA left (log2)” value is 0.0456.

For the sequence GCTAGGA, the “uncleaved DNA left (log2)” value was found to be 0.0194.

The subject of another test is T3, Rep nickase domain of tomato yellow leaf curl virus.
T3 sequence (Rep 1-136, printed without the tag): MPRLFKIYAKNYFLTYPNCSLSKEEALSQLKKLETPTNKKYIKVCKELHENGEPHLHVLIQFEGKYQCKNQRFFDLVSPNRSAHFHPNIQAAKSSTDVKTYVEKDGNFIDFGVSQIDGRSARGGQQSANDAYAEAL
Described as above. Here is the method:
as §1
For the sequence CCGCCTG, the “uncleaved DNA left (log2)” value was -0.0385.

Turning to ATGCTCA, the “uncleaved DNA left (log2)” value worked out at 0.00437.

Turning to GTCCACA, the “uncleaved DNA left (log2)” value was -0.0286.

On to CTGTGCT, for which the “uncleaved DNA left (log2)” value amounted to 0.13.

On to ATAAAGT, for which the “uncleaved DNA left (log2)” value was -0.0989.

Consider GCGTATG, for which the “uncleaved DNA left (log2)” value worked out at 0.0273.

As to ATCCGAA, the “uncleaved DNA left (log2)” value is -0.126.

As to TACAAGA, the “uncleaved DNA left (log2)” value is -0.00556.

As to CGCCAAC, the “uncleaved DNA left (log2)” value was -0.00774.

With CCGTTAT, the “uncleaved DNA left (log2)” value turned out to be 0.0264.

TAGTAGC: the “uncleaved DNA left (log2)” value is -0.00595.

With GTCGGGC, the “uncleaved DNA left (log2)” value came out at 0.0369.

As for CCATGCT, the “uncleaved DNA left (log2)” value is -0.138.

Take TGGCATC: the “uncleaved DNA left (log2)” value turned out to be 0.156.

As to CTTGTGT, the “uncleaved DNA left (log2)” value is 0.201.

For the sequence CACTCGT, the “uncleaved DNA left (log2)” value was -0.0867.

On to GTGTGAG, for which the “uncleaved DNA left (log2)” value is 0.00945.

In the case of CTTCGGG, the “uncleaved DNA left (log2)” value was 0.0347.

Turning to GGACTAT, the “uncleaved DNA left (log2)” value worked out at 0.0875.

Take ATAACGG: the “uncleaved DNA left (log2)” value is -0.221.

As for TAGCGTT, the “uncleaved DNA left (log2)” value was found to be 0.0327.

On to GTTGTTG, for which the “uncleaved DNA left (log2)” value is -0.00743.

As to TTAACAG, the “uncleaved DNA left (log2)” value was 0.0345.

For the sequence AGTGGGC, the “uncleaved DNA left (log2)” value is -0.0186.

As to GCCAGAC, the “uncleaved DNA left (log2)” value was -0.0652.

Take ACACGCG: the “uncleaved DNA left (log2)” value turned out to be 0.12.

In the case of GTATGTT, the “uncleaved DNA left (log2)” value is -0.0188.

With ACTCCCA, the “uncleaved DNA left (log2)” value is -0.183.

GACTCTC: the “uncleaved DNA left (log2)” value is 0.0286.

In the case of AAGAGGG, the “uncleaved DNA left (log2)” value was -0.00987.

Turning to CCTAACC, the “uncleaved DNA left (log2)” value was -0.111.

In the case of TATGTCA, the “uncleaved DNA left (log2)” value came to 0.15.

As to AGGAAGG, the “uncleaved DNA left (log2)” value is -0.161.

For the sequence TGTATGG, the “uncleaved DNA left (log2)” value was -0.0423.

Turning to CGTTTTT, the “uncleaved DNA left (log2)” value is -0.075.

For the sequence CCGCGGA, the “uncleaved DNA left (log2)” value was -0.00187.

With TCTCAAA, the “uncleaved DNA left (log2)” value is -0.0353.

Turning to CCGGACT, the “uncleaved DNA left (log2)” value is -0.13.

In the case of CCTTTAA, the “uncleaved DNA left (log2)” value is -0.0349.

In the case of GCTAGGA, the “uncleaved DNA left (log2)” value worked out at 0.0547.
